# Publication PMC4336329 (PLoS ONE, 2015)
# The whole screen tested about 310,000 compounds, of which about 14,000 (4.5%) showed an effect of 50% or more. Effects have a minus sign here. The list shows a part of the results.
# Target: human ether-à-go-go-related gene (hERG) potassium channel (human, UniProt Q12809)
# Assay: primary screen, population patch clamp on CHO cells stably expressing hERG
# 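Note: peak tail current of the secondary pulse compared with the same well before compound.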
# Sequence of human ether-à-go-go-related gene (hERG) potassium channel (Q12809 whole entry, looked up): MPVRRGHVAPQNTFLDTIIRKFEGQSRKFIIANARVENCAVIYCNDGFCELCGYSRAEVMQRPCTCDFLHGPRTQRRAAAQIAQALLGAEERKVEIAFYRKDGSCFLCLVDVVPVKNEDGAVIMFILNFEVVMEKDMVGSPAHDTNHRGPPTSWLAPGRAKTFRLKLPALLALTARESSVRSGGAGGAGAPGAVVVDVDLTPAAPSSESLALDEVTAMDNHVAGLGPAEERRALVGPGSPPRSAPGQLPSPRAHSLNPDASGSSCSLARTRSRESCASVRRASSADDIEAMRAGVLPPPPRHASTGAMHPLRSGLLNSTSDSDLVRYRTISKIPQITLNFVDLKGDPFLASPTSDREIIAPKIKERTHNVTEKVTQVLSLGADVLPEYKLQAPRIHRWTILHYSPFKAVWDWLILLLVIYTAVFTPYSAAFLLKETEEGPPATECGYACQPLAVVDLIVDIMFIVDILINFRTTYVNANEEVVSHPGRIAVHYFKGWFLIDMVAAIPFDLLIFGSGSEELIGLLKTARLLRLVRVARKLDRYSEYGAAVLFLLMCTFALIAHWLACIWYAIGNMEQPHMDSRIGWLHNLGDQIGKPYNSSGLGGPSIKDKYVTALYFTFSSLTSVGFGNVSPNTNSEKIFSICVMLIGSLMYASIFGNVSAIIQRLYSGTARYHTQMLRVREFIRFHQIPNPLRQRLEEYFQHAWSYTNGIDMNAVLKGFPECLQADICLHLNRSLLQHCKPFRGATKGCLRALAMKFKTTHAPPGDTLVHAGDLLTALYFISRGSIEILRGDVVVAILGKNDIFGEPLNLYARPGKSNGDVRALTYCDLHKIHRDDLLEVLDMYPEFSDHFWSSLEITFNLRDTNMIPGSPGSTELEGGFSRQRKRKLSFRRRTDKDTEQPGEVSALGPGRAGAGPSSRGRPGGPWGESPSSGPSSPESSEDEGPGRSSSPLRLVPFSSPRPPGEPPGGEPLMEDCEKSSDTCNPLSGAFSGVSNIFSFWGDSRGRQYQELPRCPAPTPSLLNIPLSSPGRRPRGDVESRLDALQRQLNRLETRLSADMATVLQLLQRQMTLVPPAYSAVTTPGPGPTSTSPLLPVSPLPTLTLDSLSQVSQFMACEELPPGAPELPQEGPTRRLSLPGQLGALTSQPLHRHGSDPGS
row,SMILES,"hERG current change (%, negative = inhibition) at 10uM [%]"
1,Clc1nc(CN2CCCCC2)nc2sc3c(c12)CCCC3,-23.1
2,COCCn1c(C)cc(/C=C2/SC(=O)N(CC(=O)N3CCCC3)C2=O)c1C,-23.8
3,COc1ccc(CC(=S)NCCc2ccccc2)cc1,8.33
4,Cc1ccc(-c2cc(C(=O)N3CCOCC3)c3ccccc3n2)cc1,-3.91
5,COc1ccc(CNC(=O)C2CCN(S(=O)(=O)c3ccc4c(c3)CC(C)N4C(C)=O)CC2)cc1 (stereo not drawn),3.7
6,NC(=S)Nc1cccc2[nH]ncc12,7.19
7,C[C@H](NC(=O)c1nc[nH]c1C(=O)N1CC[NH2+]CC1)C(=O)OCc1ccccc1.[Cl-],11.6
8,CC(CN1CCCC1)C(=O)NN (stereo not drawn),0.0741
9,Cc1csc(C2=C(O)CN(CCc3ccccc3)C2=N)n1,1.95
10,COc1ccc(/C(C)=N/NC(=O)c2ccc(CSc3cccc4cccnc34)cc2)cc1OC,-21.2
11,CCN(CC)CCN1C(=O)C(=O)/C(=C(/O)c2c(C)[nH]c(C(=O)OC)c2C)C1c1ccccc1OC (stereo not drawn),20.8
12,O=C(c1nc2ccccn2c1CN1CCN(c2ccccc2O)CC1)N1CCCC1,34.7
13,c1coc(CNCCCN2CCOCC2)c1,-0.128
14,O=C(CCSc1ccccc1)Nc1nnc(-c2ccccc2)o1,7.27
15,CCCc1c(C(=O)N/N=C/c2ccco2)nnn1-c1nonc1N,11.6
16,CCC1CCCCN1CCCNC(=O)Cn1cnc2sc(C)c(S(=O)(=O)N3CCC(C)CC3)c2c1=O (stereo not drawn),3.65
17,CCOc1cc(N2CCOCC2)c(OCC)cc1NC(=O)CSc1nccc(C)n1,-39.5
18,Cc1cc(O)c(C=Nc2ccc(N3CCOCC3)cc2)c(C)c1Cl,18.5
19,Cc1ccc(C(=O)N/C(=C\c2ccc(-c3ccccc3[N+](=O)[O-])o2)C(=O)NCCN(C)C)cc1,-55.4
20,CCOC(=O)N1CCC(NC(=O)C(NS(=O)(=O)c2ccc3c(c2)CCN3C(C)=O)C(C)C)CC1 (stereo not drawn),4.79
21,N#Cc1ccc(C23CC4(C2)[C@H](CN(Cc2ccc(C(F)(F)F)cc2)[C@@H]4c2ccccc2)C3c2ccccc2)cc1 (stereo partly drawn),13.5
22,COc1ccc(CCNC(=O)c2ccc(S(=O)(=O)N3CCCCC3)cc2)cc1,9.55
23,O=C(Cc1cccc2ccccc12)N/N=C/c1ccc(Sc2cccc3cccnc23)o1,2.87
24,O=C(Cn1cnc2ccccc2c1=O)c1ccccc1,-0.492
25,CC(C)CCNC(=S)Nc1ccc2nc3n(c(=O)c2c1)CCCCC3,-46.2
26,O=C(CSc1nnc(-c2ccco2)o1)N1CCCCC1,12.3
27,C[C@H](NC(=O)[C@@H]1Cc2ccccc2CN1)C(=O)NC1CCCCC1,13.3

row,SMILES,"hERG current change (%, negative = inhibition) at 10uM [%]"
1,Cc1ccc(C(=O)C[n+]2cc(Br)cc(Br)c2)cc1.[Br-],-9.89
2,COCCN(C(=O)CSc1nnc(-c2cccc(OC)c2)n1C)c1c(N)n(Cc2ccccc2)c(=O)[nH]c1=O,21.7
3,CC(Oc1cc2oc(=O)c3c(c2cc1Cl)CCC3)C(=O)NCc1cccnc1 (stereo not drawn),-4.94
4,CCN(CC)S(=O)(=O)c1ccc(N2CCOCC2)c(NS(=O)(=O)c2ccc(C)cc2)c1,6.21
5,COc1ccc(NS(=O)(=O)c2ccc(C)c(NC(=O)NC3CCCCC3)c2)cc1,-24.9
6,CCN(CC(=O)Nc1ccc(NC(C)=O)cc1)C(=O)C12CC3CC(CC(Cl)(C3)C1)C2,-14.6
7,CCOc1ccc(Cl)cc1CNc1nnnn1C,21.7
8,CCC(C)N1CC(O)=C(c2nc3ccccc3[nH]2)C1=N (stereo not drawn),-6.65
9,CCOC(=O)C1CCN(C(=O)c2ccc(Oc3cc(Cl)cc(Cl)c3)o2)CC1,-13
10,CC(OCC(O)CNCC1COc2ccccc2O1)c1ccc(Cl)cc1 (stereo not drawn),-22.7
11,O=S(=O)(NCC(c1ccco1)N1CCOCC1)c1ccc(Cl)cc1 (stereo not drawn),-10.6
12,CCOc1cc(C(=O)Nc2ccccc2N2CCOCC2)ccc1OCC(=O)N1CCOCC1,1.5
13,Cc1nn(C)c(C)c1CN(C)C(=O)CCCC(=O)O,-4.62
14,CN(C(=O)COC(=O)c1cc(S(=O)(=O)N2CCOCC2)c(Cl)cc1Cl)C1CCS(=O)(=O)C1 (stereo not drawn),2.52
15,CS(=O)(=O)c1ccccc1-c1nnc(NC(=O)Cc2ccccc2)o1,14.3
16,O=C(O)C12CC3CC(C1)CC(n1cnc(Cl)n1)(C3)C2,7.4
17,COc1ccc(CN2C(=O)C(C)=C(C)C2OC)cc1 (stereo not drawn),15
18,COc1ccc(C(=O)CSc2nnc(CN3CCCCC3)n2-c2ccc(Cl)cc2)cc1OC,-17.1
19,Cc1ccc2nc(-c3ccc(N4C(=O)CC(N5CCC(C(N)=O)CC5)C4=O)cc3)sc2c1 (stereo not drawn),7.3
20,COc1cc(/C=N\NC(=O)c2ccc(Cl)cc2)ccc1Oc1ccc([N+](=O)[O-])cn1,-32.7
21,CCCCNC(=O)COC(=O)c1cc(Br)ccc1Cl,3.22
22,Cc1ccc(S(=O)(=O)NCCN=C(CN2CCCC2)NS(=O)(=O)c2ccc(C)cc2)cc1,-30.8
23,O=C(CSc1nnnn1Cc1ccccc1)c1ccc(F)cc1,-25.8
24,Cc1cccc(NC(=O)[C@H](C)NC(=O)[C@@H]2Cc3ccccc3CN2C(=O)OC(C)(C)C)c1,-5.71
25,COc1ccc(CCN(C)C(=O)c2cc(S(=O)(=O)N3CCCCC3)ccc2Cl)cc1OC,0.297
26,CC(C)NC(=O)c1ccccc1NC(=O)Cc1ccc(Br)cc1,8.93
27,COc1ccc(S(=O)(=O)N(C)CC(=O)NCc2cccnc2)cc1C,1.21
